The source of these data is doi:10.1101/2025.01.14.633037.

These are yes or no findings as the source states them, for the method shown. For part of these data: In cells and extracts the contact can be indirect. Some entries that bind do so weakly or less than the wild type. Where a sequence is shown, tags or fusion partners need not be part of it.

The target of test [1] is (TA)20 fused to mEos3.1. Briefly: SDD-AGE; semidenaturing detergent-agarose gel electrophoresis of yeast lysates, 0.1% sarkosyl, mEos3.1 fluorescence imaged in the gel.
The target in test [2] is (TA)20 fused to mEos3.1. In words: FRET or BRET; DAmFRET: mEos3.1 fusions expressed in S. cerevisiae, galactose induction 20 hr with 100 uM MG132, partial photoconversion of mEos3.1, flow cytometry; AmFRET between copies of the same protein against its intracellular concentration (approximately 2 to 200 uM).
The target of another test is (YA)20 fused to mEos3.1. The test is described as above.
Test [3] has as its target poly-YA with 10 repeats fused to mEos3.1. Described as above.
In another test the target is (GA)20 fused to mEos3.1. The test is described as above.
The target in test [4] is poly-TA with 10 repeats fused to mEos3.1. The description is as above.

For the molecule TATATATATATATATATATATATATATATATATATATATA [(TA)20 fused to mEos3.1], the binding entry with (TA)20 fused to mEos3.1 [1] and with (TA)20 fused to mEos3.1 [2] was “binds” in each case.
For YAYAYAYAYAYAYAYAYAYAYAYAYAYAYAYAYAYAYAYA [(YA)20 fused to mEos3.1], in the test with (YA)20 fused to mEos3.1, the binding result is on record as “binds”.
As to YAYAYAYAYAYAYAYAYAYA [poly-YA with 10 repeats fused to mEos3.1], the binding result in test [3] is “binds”.
In the case of GAGAGAGAGAGAGAGAGAGAGAGAGAGAGAGAGAGAGAGA [(GA)20 fused to mEos3.1], the binding result with (GA)20 fused to mEos3.1 was “no binding (tested: range probed approximately 2 to 200 μM)”.
Consider TATATATATATATATATATA [poly-TA with 10 repeats fused to mEos3.1], for which, in test [4], the binding entry was “binds”.
